Hit rate of the full screen: of about 360,000 compounds, about 270 (0.075%) were called active. The inconclusive results got no clear call from the source; some entries with a clear call stand among them for comparison. The call rests on the fitted dose curve; in most records, active means well fitted activation curve with a large enough effect; inconclusive means small, poorly fitted or top-dose-only effect; inactive means no such curve, though single readings can be large or run the other way. No potency is given beside an inconclusive call; the fits are too rough.
The compounds below were run against Rap guanine nucleotide exchange factor 3 (Homo sapiens) (UniProt O95398) (assay: qHTS for Agonist of cAMP-regulated guanine nucleotide exchange factor 3 (EPAC1): primary screen). Conditions: biochemical assay; activation: at 154 µM (top of the series), 100% = response to 6.5 mM cAMP.
UniProt O95398, sequence (O95398 whole entry, looked up): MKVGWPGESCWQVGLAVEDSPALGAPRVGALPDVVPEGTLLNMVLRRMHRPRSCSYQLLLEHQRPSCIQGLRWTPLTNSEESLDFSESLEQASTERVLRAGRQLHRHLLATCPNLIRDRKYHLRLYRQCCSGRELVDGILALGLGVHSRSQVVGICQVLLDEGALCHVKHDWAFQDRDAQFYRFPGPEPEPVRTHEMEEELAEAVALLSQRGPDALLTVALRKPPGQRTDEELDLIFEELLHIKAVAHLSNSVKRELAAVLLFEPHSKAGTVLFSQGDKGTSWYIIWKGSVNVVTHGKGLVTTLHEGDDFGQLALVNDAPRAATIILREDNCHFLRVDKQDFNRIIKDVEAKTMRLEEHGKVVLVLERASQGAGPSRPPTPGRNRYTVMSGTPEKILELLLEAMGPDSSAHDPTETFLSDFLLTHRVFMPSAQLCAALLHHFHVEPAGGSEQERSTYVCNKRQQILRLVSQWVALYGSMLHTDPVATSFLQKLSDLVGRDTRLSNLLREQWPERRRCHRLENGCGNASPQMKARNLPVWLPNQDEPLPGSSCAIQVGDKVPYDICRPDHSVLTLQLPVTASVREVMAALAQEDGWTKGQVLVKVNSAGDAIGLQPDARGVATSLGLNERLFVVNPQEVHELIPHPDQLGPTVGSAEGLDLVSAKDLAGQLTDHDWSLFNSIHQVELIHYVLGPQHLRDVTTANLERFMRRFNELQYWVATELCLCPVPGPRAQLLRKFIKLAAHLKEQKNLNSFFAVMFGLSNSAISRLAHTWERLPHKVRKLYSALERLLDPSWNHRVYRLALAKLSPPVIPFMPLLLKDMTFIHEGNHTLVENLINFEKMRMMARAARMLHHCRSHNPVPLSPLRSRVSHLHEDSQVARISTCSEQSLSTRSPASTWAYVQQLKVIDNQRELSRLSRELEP
Procedure, shortened: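 Fluorescent GDP-exchange assay: 100 nM EPAC1 with 250 nM Rap1B preloaded with BODIPY-GDP and 50 uM GDP; compounds tested as concentration series, 5 min at room temperature, then read every 5 min for 30 min (ex 480/em 540 nm); normalized to 6.5 mM cAMP.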
Further: nearly all actives have a fitted effect of over 60% in size.
Potency means the concentration at half of the fitted maximal effect; tags describe the fitted curve by direction and shape.

Row | Structure (SMILES) | Potency | activation
1 | COCCN1C(=O)/C(=C/c2ccc(N3CCCC3)cc2)SC1=S | inconclusive [activator, partial curve] | 
2 | CN(CC1COc2ccccc2O1)C(=O)c1cc(COc2c(F)cccc2F)on1 (stereo not given) | inconclusive [activator, full curve, poor fit] | 
3 | COc1ccccc1NC(=O)CNC(=O)CC12CC3CC(CC(C3)C1)C2 |  | inactive: -11.5%
4 | Cc1ccc(NC(=O)CSCC(=O)N(C)CCOc2ccc(Cl)cc2)cc1 |  | inactive: 6.29%
5 | O=C(OCC(=O)N1CCCc2ccccc21)c1cccc(S(=O)(=O)N2CCOCC2)c1 | inconclusive [activator, partial curve] | 
6 | CC(CC(=O)Nc1ccc(Cl)c(S(=O)(=O)N2CCOCC2)c1)c1ccccc1 (stereo not given) | active: 22.4 µM | 
7 | CC(C)(C)NC(=O)C(c1ccc(O)cc1)N(Cc1ccccc1)C(=O)CCC(=O)Nc1nccs1 (stereo not given) |  | inactive: -5.06%
8 | COc1cc(-c2nnn(CC#N)n2)ccc1OCc1ccccc1 | inconclusive [activator, partial curve] | 
9 | Cc1cccc(-n2nc3c(c2NC(=O)c2cc4ccccc4o2)CS(=O)(=O)C3)c1 | inconclusive [activator, partial curve] | 
10 | Nc1ccc(-c2c3ccc(=O)cc-3oc3cc(O)ccc23)cc1C(=O)O | active: 100 µM | 
11 | Clc1ccc(OCCSc2ncccn2)cc1 |  | inactive: 0%
12 | CC1CCN(Cc2c(C(=O)N/N=C/c3cc(Cl)ccc3O)nnn2-c2nonc2N)CC1 |  | inactive: 1.2%
13 | CN(Cc1ccccc1)S(=O)(=O)c1ccc(NS(=O)(=O)Cc2ccccc2)cc1 | inconclusive [activator, full curve, poor fit] | 
14 | Cn1c2ccccc2c2c(C(=O)N3CCN(c4ccccc4)CC3)cn(C3CCCC3)c(=O)c21 | inconclusive [activator, partial curve] | 
15 | Oc1ccc2ccccc2c1C=Nc1ccc(N2CCOCC2)cc1 | inconclusive [activator, full curve, poor fit] | 
16 | COc1cc([N+](=O)[O-])ccc1-c1ccc(/C=C2\C(=O)ON=C2c2ccccc2)o1 |  | inactive: 9.6%
17 | Cc1ccn(S(=O)(=O)c2ccc(C(C)(C)C)cc2)n1 |  | inactive: -2.84%
18 | O=C(CNC(=O)c1sc2ccccc2c1Cl)NCc1cccc(C(F)(F)F)c1 | inconclusive [activator, single point] | 
19 | CC1=C(C(=O)N2CCCCCC2)CC(CC(=O)NCCCN(C)C)C(=O)N1CCCN1CCCC1=O (stereo not given) | inconclusive [activator, full curve, poor fit] | 
20 | CC1CC1c1ccc(/C=C(\C#N)C(=O)Nc2cc(Cl)ccc2Cl)o1 (stereo not given) | active: 89.1 µM | 
21 | CCN(CC(=O)Nc1ccccc1OC)C(=O)c1ccc(N(C)S(=O)(=O)c2ccc(C)cc2)cc1 | inconclusive [activator, partial curve] | 
22 | O=C(Nc1ccc(Cl)cc1)N1CC=CCC1 |  | inactive: -5.99%

Row | Structure (SMILES) | Potency | activation
23 | CCc1noc(C)c1C(=O)NCCc1c[nH]c2ccccc12 | inconclusive [activator, full curve] | 
24 | CSCCC(NS(=O)(=O)c1ccc2c(c1)OCCO2)C(=O)N(C)Cc1ccc(F)cc1 (stereo not given) | inconclusive [activator, single point] | 
25 | CCCCn1c(N)c(N(CCOC)C(=O)c2ccc(N3CCCC3)c([N+](=O)[O-])c2)c(=O)[nH]c1=O | inconclusive [activator, full curve, poor fit] | 
26 | CCOc1ccc(/C=N/NC(=O)c2cc(-c3ccco3)nc3ccccc23)cc1 |  | inactive: -8.77%
27 | CCCn1c(/N=C/c2c[nH]c3ccccc23)nc2ccccc21 | inconclusive [activator, partial curve] | 
28 | COc1ccc2nc3ccccc3[n+]([O-])c2c1 | inconclusive [activator, partial curve] | 
29 | CCOC(=O)C1=C(CSc2nc3ccccc3s2)NC(=O)NC1c1ccc(OC)cc1 (stereo not given) | inconclusive [activator, partial curve] | 
30 | CC1=NN(c2ccccc2)C(=O)/C1=C\C=C\c1ccccc1 |  | inactive: 9.84%
31 | O=C1NC[C@H](CCCCN2CCN(Cc3ccccc3)C(=O)C2=O)N(CC2CCCCC2)C1=O |  | inactive: -6.06%
32 | Cc1ccc(NC(=O)COc2cccc(/C=C3\SC(=S)N(CCC(=O)O)C3=O)c2)cc1Cl | inconclusive [activator, partial curve] | 
33 | Nc1nc(NCC(=O)O)nc(NCc2ccccc2)c1[N+](=O)[O-] | inconclusive [activator, single point] | 
34 | N#Cc1c(N2CCCC2)nc(N)c2c(N)nc(N3CCCC3)cc12 |  | inactive: 0.685%
35 | O=C(COC(=O)CSc1ccc([N+](=O)[O-])cc1)NCc1cccs1 | inconclusive [activator, single point] | 
36 | COc1ccc(N=Cc2c(O)ccc3ccccc23)cc1 | inconclusive [activator, single point] | 
37 | O=C(COC(=O)C1COc2ccccc2O1)NC1CCCCC1 (stereo not given) |  | inactive: 0.393%
38 | COc1ccc(OC)c(CN2CCN(C(=O)c3cc(S(=O)(=O)Nc4ccccc4OC)ccc3C)CC2)c1 | inconclusive [activator, partial curve] | 
39 | Brc1ccc(C2=CC(c3ccco3)n3ncnc3N2)cc1 (stereo not given) | inconclusive [activator, full curve] | 
40 | CCN(CC)c1ccc2c(-c3ccc(S(=O)(=O)O)cc3S(=O)(=O)[O-])c3ccc(=[N+](CC)CC)cc-3oc2c1 | active: 63.1 µM | 
41 | Cc1ccc(OCCC(=O)OCC(=O)N2CCN(S(=O)(=O)c3ccc(C)cc3)CC2)cc1 | inconclusive [activator, single point] | 
42 | CCN(CC(=O)NCc1cccs1)C(=O)c1ccc(S(=O)(=O)Nc2ccccc2)cc1 | inconclusive [activator, single point] | 
43 | C[C@@H]1CCCCO[C@H](CN(C)Cc2ccc3c(c2)OCO3)[C@@H](C)CN([C@H](C)CO)C(=O)c2cc(NC(=O)c3ccccc3)ccc2O1 |  | inactive: 17.6%
44 | c1ccc2c(COn3nnc4ccccc43)cccc2c1 | inconclusive [activator, partial curve] | 

Row | Structure (SMILES) | Potency | activation
45 | CCc1ccc(OCCCC(=O)Nc2nnc(C3CCCO3)s2)cc1 (stereo not given) |  | inactive: -8.04%
46 | CSCCC(NC(=O)COc1ccccc1)C(=O)N1CCN(c2ccccc2O)CC1 (stereo not given) | inconclusive [activator, full curve, poor fit] | 
47 | CC1=CC2=NC(=O)/C(=C/c3coc4ccc(Cl)cc4c3=O)C(=N)N2O1 | inconclusive [activator, full curve] | 
48 | CCOC(=O)c1c(C)[nH]c(C(=O)OCC(=O)NC2(C#N)CCCCC2)c1C | inconclusive [activator, single point] | 
49 | c1ccc(COc2cccc(CN3CCN(c4ccccn4)CC3)c2)cc1 | inconclusive [activator, partial curve] | 
50 | CC1(C)CC(=O)C2=C(C1)OC(N)=C(C#N)C2c1cc2c(cc1[N+](=O)[O-])OCO2 (stereo not given) | inconclusive [activator, single point] | 
51 | CCCC(C(=O)Nc1ccc(C)c(S(=O)(=O)N2CCOCC2)c1)c1ccccc1 (stereo not given) | inconclusive [activator, partial curve, poor fit] | 
52 | Cc1ccc(C)c(COC(=O)c2cc(S(=O)(=O)N3CCCCC3)ccc2N2CCOCC2)c1 | inconclusive [activator, single point] | 
53 | O=C(OCC(=O)N1CCN(S(=O)(=O)c2ccc(Cl)cc2)CC1)c1cccc(OC(F)F)c1 | inconclusive [activator, full curve, poor fit] | 
54 | COc1cc(/C=C2\SC(=Nc3ccccc3)N(CCc3c[nH]c4ccccc34)C2=O)ccc1OC(C)C(=O)O (stereo not given) | active: 100 µM | 
55 | Cc1ccc(SCc2[nH]nc3c2C2(CCSCC2)C(C#N)=C(N)O3)cc1 | inconclusive [activator, single point] | 
56 | CCN1CCN(S(=O)(=O)c2ccc(Cl)c(C(=O)N(C)Cc3cccc(Cl)c3Cl)c2)CC1 | inconclusive [activator, partial curve, poor fit] | 
57 | CC(=O)Nc1cccc(OCCCOc2ccc([N+](=O)[O-])cc2)c1 |  | inactive: 2.97%
58 | CC1=C(C#N)C(c2ccoc2)C(C(=O)OCc2ccccc2)=C(N)S1 (stereo not given) | inconclusive [activator, full curve, poor fit] | 
59 | O=[N+]([O-])c1ccc(N(c2ccccc2)c2ccccc2)cc1 | inconclusive [activator, partial curve] | 
60 | COc1ccc(OC)c(Nc2ncnc3c2cnn3-c2cccc(C)c2)c1 | inconclusive [activator, partial curve] | 
61 | C(=N\Nc1nc(Nc2ccccc2)nc(N2CCOCC2)n1)/c1c[nH]c2ccccc12 | inconclusive [activator, partial curve] | 
62 | CCCCn1c(N)c(N(CCOC)C(=O)c2cccc(S(=O)(=O)N(C)c3ccc(C)cc3)c2)c(=O)[nH]c1=O | inconclusive [activator, full curve, poor fit] | 
63 | O=C(CN1CCCCCC1)Nc1ccccc1Oc1ccccc1 |  | inactive: 5.79%
64 | COc1ccc(S(=O)(=O)N2CCOC23CCN(S(=O)(=O)c2ccc(F)cc2C)CC3)cc1 | inconclusive [activator, single point] | 
65 | CC(OC(=O)Cc1c[nH]c2ccccc12)C(=O)Nc1ccccc1F (stereo not given) | inconclusive [activator, single point] | 
